The values below come from the supplement of paper PMC4166925.

± gives the standard deviation of the averaged measurements. Over roughly 33,000 sequences, “E-score (dimensionless, -0.5 to 0.5)” has its median near -0.049; the highest 2% begin near 0.37. The list shows a part of the results.

This assay deals with T1, PmTbr T-box DNA-binding domain (GST fusion).
T1 sequence: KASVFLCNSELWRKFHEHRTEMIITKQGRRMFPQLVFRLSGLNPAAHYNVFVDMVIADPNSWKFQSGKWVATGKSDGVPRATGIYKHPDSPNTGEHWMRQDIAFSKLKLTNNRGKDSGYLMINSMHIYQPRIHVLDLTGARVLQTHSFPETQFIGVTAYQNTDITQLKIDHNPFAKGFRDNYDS
As to the kind of experiment: PBM E-score of 8-mer (E-score (dimensionless, -0.5 to 0.5)); Tbr is Tbrain of the sea star Patiria miniata (Pm) or the sea urchin Strongylocentrotus purpuratus (Sp); higher = stronger binding preference; most listed sequences are background and not binding sites. The settings on record: the construct has about 5 more residues each side. On the procedure:
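Universal protein-binding microarray (Agilent AMADID 016060, 60-bp probes with a 35-bp variable region) incubated with 200 nM GST-fused Patiria miniata Tbr T-box DNA-binding domain (residues 272-466) in PBS pH 7.5. Scored for every ungapped 8-mer (given with its reverse complement) by the Universal PBM Analysis Suite as E-score (modified Wilcoxon-Mann-Whitney enrichment, range -0.5 to 0.5; >0.45 counts as bound) and Z-score of median probe intensity. Two replicate arrays (datasets 1 and 2).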
On to AATGTCCT, for which the “PBM E-score of 8-mer” value was -0.216 ± 0.043.
With AGCTGAAA, the “PBM E-score of 8-mer” value was -0.105 ± 0.11.
As for GTAGGCCA, the “PBM E-score of 8-mer” value is -0.196 ± 0.081.
On to CAGTGGCG, for which the “PBM E-score of 8-mer” value is 0.231 ± 0.056.
With AGATGCTC, the “PBM E-score of 8-mer” value was -0.155 ± 0.039.
In the case of ACGTGTTG, the “PBM E-score of 8-mer” value was 0.3744 ± 0.0004.
Regarding CGTCCCAG, the “PBM E-score of 8-mer” value was -0.151 ± 0.0033.
As to CGACATAA, the “PBM E-score of 8-mer” value is -0.0322 ± 0.096.
To GAAGTTGC belongs 0.184 ± 0.041; to ACCGATGG, -0.16 ± 0.041.
Consider AGCTATAC, for which the “PBM E-score of 8-mer” value is -0.177 ± 0.053.
Then CTCGCAGC, with 0.176 ± 0.0099; and GATAACAA, with 0.212 ± 0.042; and GATGGCCC, with -0.138 ± 0.0089.
As to GAAGACTA, the “PBM E-score of 8-mer” value was -0.157 ± 0.029.
With GCTACTTA, the “PBM E-score of 8-mer” value is -0.129 ± 0.039.
On to ATGGCGTA, for which the “PBM E-score of 8-mer” value was -0.242 ± 0.01.
As for ACTAACGG, the “PBM E-score of 8-mer” value stood at 0.192 ± 0.005.
Take AGGGTGGC: the “PBM E-score of 8-mer” value was 0.191 ± 0.011.
In the case of CGCTCGAG, the “PBM E-score of 8-mer” value is -0.137 ± 0.039.
Then CATGGTGA, with 0.131 ± 0.041; and GCGTCCCC, with -0.124 ± 0.051.
Consider CTACTCCA, for which the “PBM E-score of 8-mer” value is -0.0451 ± 0.062.
Then GACTGAGA, with -0.181 ± 0.085; and ACTCGCCT, with -0.00632 ± 0.066.
To ACCGACCT belongs 0.0799 ± 0.086; to CTCCACGC, -0.00754 ± 0.15; to CCCTAGTA, -0.0951 ± 0.035.
For CTACCTAA, the “PBM E-score of 8-mer” value was -0.166 ± 0.089.
On to GACTCTGC, for which the “PBM E-score of 8-mer” value is -0.224 ± 0.09.
On to GGAATGTA, for which the “PBM E-score of 8-mer” value was -0.207 ± 0.05.
For AAAACTAC, the “PBM E-score of 8-mer” value turned out to be 0.0477 ± 0.035.
Turning to AGCTGGAC, the “PBM E-score of 8-mer” value is -0.109 ± 0.031.
On to GGGCCAAC, for which the “PBM E-score of 8-mer” value is -0.007 ± 0.099.
In the case of CTTTGGCA, the “PBM E-score of 8-mer” value turned out to be 0.288 ± 0.017.
As for AAAAGGAA, the “PBM E-score of 8-mer” value was -0.00011 ± 0.062.
As to AACAGGAT, the “PBM E-score of 8-mer” value was -0.142 ± 0.096.
Turning to CCAATGTC, the “PBM E-score of 8-mer” value is 0.088 ± 0.055.
Then ACCGGACC, with -0.138 ± 0.016; and CATGGCTC, with -0.0856 ± 0.1; and GGTCAAAA, with -0.179 ± 0.065.
For CCCAGGGC, the “PBM E-score of 8-mer” value was -0.0441 ± 0.013.
With CATGTGAA, the “PBM E-score of 8-mer” value stood at 0.179 ± 0.049.
Regarding CTCCAGAG, the “PBM E-score of 8-mer” value was -0.161 ± 0.025.
To GTGACATA belongs 0.321 ± 0.033.
As for AGGACTGG, the “PBM E-score of 8-mer” value is -0.337 ± 0.007.
As to CCTCCTAG, the “PBM E-score of 8-mer” value is -0.052 ± 0.055.
As for GGGTGTAA, the “PBM E-score of 8-mer” value stood at 0.385 ± 0.013.
Turning to AATTCAAA, the “PBM E-score of 8-mer” value was -0.153 ± 0.042.
Take ACCAAGGG: the “PBM E-score of 8-mer” value is -0.0317 ± 0.00022.
For AGGGTGCC, the “PBM E-score of 8-mer” value came to 0.296 ± 0.026.
Then GGTCGCGA, with 0.335 ± 0.011; and ATAGTCAA, with -0.00619 ± 0.018; and ACGGACAT, with -0.0384 ± 0.04.
Take CACAAAGG: the “PBM E-score of 8-mer” value is -0.114 ± 0.041.
Turning to AGCAGACA, the “PBM E-score of 8-mer” value turned out to be 0.0964 ± 0.024.
On to CCACAGCC, for which the “PBM E-score of 8-mer” value was -0.181 ± 0.043.
Regarding CCCAGTCC, the “PBM E-score of 8-mer” value is -0.213 ± 0.022.
Take CCCACTGA: the “PBM E-score of 8-mer” value was -0.0919 ± 0.041.
Then ATCACAAT, with 0.187 ± 0.019.
As to CACGGAAA, the “PBM E-score of 8-mer” value was found to be 0.0541 ± 0.056.
As to TAGATGGA, the “PBM E-score of 8-mer” value was -0.227 ± 0.037.
In the case of GAGTCCGC, the “PBM E-score of 8-mer” value was -0.0521 ± 0.036.
For GTAGAATA, the “PBM E-score of 8-mer” value is -0.203 ± 0.031.
In the case of GGACGCAC, the “PBM E-score of 8-mer” value is -0.0479 ± 0.052.
As for ACGTGACG, the “PBM E-score of 8-mer” value is 0.346 ± 0.0083.
In the case of CTAGCAAC, the “PBM E-score of 8-mer” value came to 0.188 ± 0.06.
On to TCCACGCA, for which the “PBM E-score of 8-mer” value was found to be 0.0988 ± 0.077.
Then ACACGAAT, with -0.0114 ± 0.011; and GTATCGGA, with -0.133 ± 0.026.
For the sequence CAGCTCGG, the “PBM E-score of 8-mer” value is -0.115 ± 0.041.
Then AACCTAAT, with -0.081 ± 0.065.
Take AAGCCAGA: the “PBM E-score of 8-mer” value is -0.334 ± 0.072.
To AATATGAA belongs -0.0309 ± 0.092; to CTGCCTGA, -0.251 ± 0.011.
Then ACTACCGA, with -0.135 ± 0.062; and ATTCCGCG, with 0.0745 ± 0.0039; and GCGCCCGA, with 0.0762 ± 0.062.
For AGTTTTAG, the “PBM E-score of 8-mer” value was 0.0632 ± 0.01.
Turning to GTTACTTA, the “PBM E-score of 8-mer” value was -0.0229 ± 0.099.
Regarding AAGACGCA, the “PBM E-score of 8-mer” value was 0.0336 ± 0.048.
As for TAGCGACA, the “PBM E-score of 8-mer” value amounted to 0.303 ± 0.015.
CACCAGAG: the “PBM E-score of 8-mer” value is 0.189 ± 0.034.
For AAATAAGG, the “PBM E-score of 8-mer” value is -0.132 ± 0.096.
Take AGCTCCAC: the “PBM E-score of 8-mer” value was 0.051 ± 0.068.
To ACACGATG belongs 0.193 ± 0.035.
